From PubChem BioAssay AID1347073 (National Center for Advancing Translational Sciences (NCATS), 2019) come the findings set out here.

Molecules are shown by their SMILES. Among all 45,000 compounds or so, about 200 (0.44%) were called active. Roughly 7% stayed inconclusive and do not appear here. The call rests on the fitted dose curve; in most records, active means well fitted activation curve with a large enough effect; inconclusive means small, poorly fitted or top-dose-only effect; inactive means no such curve, though single readings can be large or run the other way. This is one part of the list.

A short description of this experiment: qHTS of TDP-43 Inhibitors: NCGC Sytravon Library Screen. Further: 0% is about no effect; nearly all actives have a fitted effect of over 55% in size. Conditions: yeast TDP-43 toxicity rescue, BacTiter-Glo growth, 24 h; series mostly up to 46.1 µM; growth rescue (activation): at the top concentration. In a few lines:
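TDP-43-expressing yeast, pregrown in raffinose, seeded at OD600 0.02 in galactose medium with compound for 24 hr at 30 deg C. Growth read by BacTiter-Glo luminescence, so rescue of toxicity appears as activation.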
With `Cc1ccc(S(=O)(=O)N(C)CCCC(=O)NC(C)(C)CO)cc1`, the “growth rescue (activation)” value was inactive: -23.2%. Take `COc1ccc(C(C(=O)NC2CCCC2)N(Cc2cccnc2)C(=O)c2snc(C(N)=O)c2N)cc1` (stereo not drawn): the “growth rescue (activation)” value is inactive: -15.5%.

As for `CCCC(O)(c1ccc(Cl)cc1)C(CN1CCOCC1)c1ccc(Cl)cc1` (stereo not drawn), the “growth rescue (activation)” value was inactive: 2.4%.

Consider `COc1cc(C=O)ccc1OCC(=O)NC(C)(C)C`, for which the “growth rescue (activation)” value is inactive: -4.82%.

Turning to `Cc1ccc(OCC(=O)NCCCNC(=O)c2ccco2)cc1`, the “growth rescue (activation)” value is inactive: -5.27%. The value for `O=C1CN(CC(=O)NC(=O)NCc2ccccc2)CCN1` was inactive: 2.88%. The value for `CN(C)CCNc1ccc(-c2n[nH]c(=O)c3ccccc23)cc1[N+](=O)[O-]` was inactive: -4.67%; that for `CC(C)OP(=O)(OC(C)C)C(Nc1cccc(C(=O)O)c1)c1ccccc1` (stereo not drawn) was inactive: -4.2%; that for `Cc1ccc(S(=O)(=O)N(C)C)cc1NC(=O)C(C)OC(=O)c1ccc2c(c1)OCCO2` (stereo not drawn) was inactive: 14.8%. As to `O=C(N/N=C/c1c(O)ccc2ccccc12)c1ccc(CO)nc1`, the “growth rescue (activation)” value was inactive: -15%. To `COC(=O)c1cc(Br)c(=O)n(Cc2ccco2)c1` belongs inactive: 14.2%; to `CCNC(=O)C1(C)CCCN(Cc2ccc(-c3ccccn3)cc2)C1` (stereo not drawn), inactive: 2.34%; to `Cc1nc(C(F)(F)F)ccc1C(=O)N1CCCC(C)(C(=O)O)C1` (stereo not drawn), inactive: 6.69%.

Turning to `COc1ccc(NC(=O)C2(C)CCN2Cc2ccc(OC)c3ccccc23)cc1OC` (stereo not drawn), the “growth rescue (activation)” value was inactive: 1.27%.

For the compound `CCC1CCCCN1C(=O)COC(=O)c1n[nH]c2ccccc12` (stereo not drawn), the “growth rescue (activation)” value is inactive: -0.372%. The value for `FC(F)(F)c1ccccc1N/N=C/c1cccnc1` was inactive: -8.07%; that for `O=C(NCC1CCCO1)c1cnc(Cl)c(Cl)c1` (stereo not drawn) was inactive: 3.75%. To `CCOC(=O)c1c(C)[nH]c(C)c1C(=O)CSc1nc2ccccc2c(=O)n1-c1ccccc1C` belongs inactive: -14.6%; to `CCc1cccc(NC(=O)CN(C)S(=O)(=O)c2cccs2)c1`, inactive: 18.4%.

For the compound `O=C(c1cnn2c(C(F)F)cc(-c3ccccc3)nc12)N1CCCCC1c1cccnc1` (stereo not drawn), the “growth rescue (activation)” value was inactive: 29.1%.

Consider `O=C(Nc1cccc(C(=O)O)c1)/C(=C\c1ccc2c(c1)OCO2)NC(=O)c1ccccc1`, for which the “growth rescue (activation)” value is inactive: -4.95%.

With `O=[N+]([O-])c1ccc(Nc2nc(NC3CCCCC3)nc(N3CCCC3)n2)cc1`, the “growth rescue (activation)” value is inactive: 11.1%. To `Cc1cnc(NC(=O)c2cncc(Br)c2)s1` belongs inactive: 1.25%; to `O=C(Nc1cccc(Cl)c1)c1cc(S(=O)(=O)NCCc2ccc(Cl)cc2)ccc1F`, inactive: 18.8%. The value for `Cc1cc(C)c(NC(=O)COC(=O)Cn2nc(-c3ccccc3)oc2=O)c(C)c1` was inactive: 12.8%.

Consider `O=C1c2cccc3c([N+](=O)[O-])ccc(c23)C(=O)N1CC1CCCO1` (stereo not drawn), for which the “growth rescue (activation)” value is inactive: -16%. To `O=C(CN1CCC(NC(=O)C2CCCCC2)CC1)Nc1cccc(F)c1` belongs inactive: -8.68%; to `COc1ccc(N(CC(=O)Nc2ccc3c(c2)OCO3)S(=O)(=O)c2ccccc2)cc1`, inactive: 2.84%. On to `Cc1occc1C(=O)N/N=C/c1ccc2c(c1)OCO2`, for which the “growth rescue (activation)” value was inactive: 6.94%. As for `CCN(CC)CCN(C(=O)c1ccc(CN2CCCCC2)o1)C(C(=O)NC1CCCCC1)c1ccc(F)cc1` (stereo not drawn), the “growth rescue (activation)” value is inactive: -2.82%. The value for `NC(=S)NNC(=O)Nc1cccc(Cl)c1` was inactive: -10.5%. `O=C(O)C1C(=O)NCC1c1ccccc1` (stereo not drawn): the “growth rescue (activation)” value was inactive: 5.38%. Regarding `CC1=NN(c2ccccc2)C(=O)/C1=C\c1cn(-c2ccccc2)nc1C`, the “growth rescue (activation)” value is inactive: -5.92%. The value for `COc1ccc(C(C(=O)NCC2CCCO2)N(C(=O)CNC(=O)c2ccco2)c2cc(C)cc(C)c2)cc1OC` (stereo not drawn) was inactive: 6.85%; that for `COc1cccc(CNC(=O)COC(=O)c2cccc(S(=O)(=O)N3CCCC3)c2)c1` was inactive: 5.24%; that for `COc1ccc(CNc2cccc3[nH]c(C(F)(F)F)nc23)cc1` was inactive: -14.8%. The value for `COC(=O)c1cc(Br)c(=O)n(CCN(C(C)C)C(C)C)c1` was inactive: 0.55%; that for `O=C(CCOc1cccc(Br)c1)Nc1ccc(F)c(S(=O)(=O)N2CCOCC2)c1` was inactive: -1.25%; that for `O=C(c1ccc(NS(=O)(=O)c2ccc(Cl)cc2)cc1)N1CCOCC1` was inactive: -0.149%.

Consider `COCC1CCN(C(=O)c2ccc3oc(Cc4ccccc4)nc3c2)C1` (stereo not drawn), for which the “growth rescue (activation)” value is inactive: 2.45%.

For `Cc1cc([N+](=O)[O-])cc(/C=N/n2c(C)nc3ccccc3c2=O)c1O`, the “growth rescue (activation)” value was inactive: -37.9%. Turning to `CCc1ccc(NC(=O)C(C)OC(=O)Cc2cc(OC)c(OC)c(OC)c2)cc1` (stereo not drawn), the “growth rescue (activation)” value was inactive: 2.7%. Turning to `CN(C(=O)COC(=O)c1cccnc1Cl)C1CCCCC1`, the “growth rescue (activation)” value was inactive: 23%. The value for `CCOc1ccccc1Nc1nnc(SCC(=O)Nc2ccc3[nH]c(=O)[nH]c3c2)s1` was inactive: 16.2%.

On to `O=C(COC(=O)c1cnccn1)c1ccc([N+](=O)[O-])cc1`, for which the “growth rescue (activation)” value was inactive: -6.66%. `CCC(C)NCCCCOc1ccc(Br)cc1` (stereo not drawn): the “growth rescue (activation)” value is inactive: -1.6%. To `CC(=O)NC(c1ccccc1)c1nc(-c2cc3ccccc3o2)cs1` (stereo not drawn) belongs inactive: 14.9%; to `CCN1CCN(c2cc3nc(C)n(Cc4ccccc4)c(=O)c3cc2NC(=O)c2ccccc2F)CC1`, inactive: -0.277%; to `Cc1ccc(-c2cc3nc(C)cc(C)n3n2)cc1`, inactive: 9.86%. As for `O=C(Nc1sc2c(c1C(=O)O)CCCCC2)c1ccccc1F`, the “growth rescue (activation)” value was inactive: 8.13%. For the compound `C[C@@H]1CN(c2nc3nonc3nc2N2CCSCC2)C[C@H](C)O1`, the “growth rescue (activation)” value is inactive: -39.1%. To `COc1ccc(C(=O)Nc2ccc(NC(=O)C3CC3)nc2)cc1` belongs inactive: 15.8%; to `CC1(C)CC(=O)c2cc(N=C/C(C(=O)c3ccccc3)=C(\O)c3ccccc3)c(=O)oc2C1`, inactive: 3.34%.
